Results on 97 compounds are retold here after PubChem BioAssay AID1159614 (National Center for Advancing Translational Sciences (NCATS), 2016).

Among all 45,000 compounds or so, about 65 (0.1%) were called active. The call rests on the fitted dose curve; in most records, active means well fitted activation curve with a large enough effect; inconclusive means small, poorly fitted or top-dose-only effect; inactive means no such curve, though single readings can be large or run the other way. Some of the results follow.
Potency means the concentration at half of the fitted maximal effect.

The target in the test is Galactocerebrosidase (Homo sapiens) (UniProt P54803). Description: A Novel Cell-Based Assay to Identify Small Molecules for B -Galactocerebrosidase. Further: nearly all actives have a fitted effect of over 65% in size. On activation: 0% is about no effect. To be noted: 145M-Twi-hGALC-G270D cells (Twitcher mouse brain line with human GALC G270D), HMU-beta-Gal fluorescence, 48 h; series mostly up to 57.5 µM; activation: at the top concentration. A digest of the protocol: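 Fluorogenic HMU-b-Gal hydrolysis (0.1 mM final, pH 5.2 citrate-phosphate with 1 mg/mL sodium taurocholate; carbonate stop buffer) measures mutant GALC activity after compound treatment of live 145M-Twi Twitcher brain cells stably carrying human GALC-G270D, with wild-type GALC line alongside; activation sought.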
Sequence of UniProt P54803 (P54803 whole entry, looked up): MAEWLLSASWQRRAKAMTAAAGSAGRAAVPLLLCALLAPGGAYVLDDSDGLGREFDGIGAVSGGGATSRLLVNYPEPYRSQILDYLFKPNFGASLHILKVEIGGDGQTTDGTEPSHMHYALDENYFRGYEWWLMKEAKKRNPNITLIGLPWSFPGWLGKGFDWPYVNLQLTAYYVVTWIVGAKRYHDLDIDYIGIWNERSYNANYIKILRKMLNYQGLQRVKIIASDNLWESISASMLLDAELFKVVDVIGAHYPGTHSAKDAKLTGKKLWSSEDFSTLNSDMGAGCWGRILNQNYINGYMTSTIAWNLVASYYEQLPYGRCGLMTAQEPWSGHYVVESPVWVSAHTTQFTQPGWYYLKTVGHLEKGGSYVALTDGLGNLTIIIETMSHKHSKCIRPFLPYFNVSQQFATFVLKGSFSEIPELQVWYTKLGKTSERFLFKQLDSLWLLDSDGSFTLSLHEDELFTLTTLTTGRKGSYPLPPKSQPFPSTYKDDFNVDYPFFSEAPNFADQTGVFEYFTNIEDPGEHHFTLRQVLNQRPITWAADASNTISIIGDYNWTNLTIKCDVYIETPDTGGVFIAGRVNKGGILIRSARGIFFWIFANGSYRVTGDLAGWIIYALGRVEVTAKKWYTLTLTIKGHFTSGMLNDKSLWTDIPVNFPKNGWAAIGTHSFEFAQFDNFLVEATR
Turning to `COc1ccccc1N1CCN(C(=O)c2ccc3c(c2)N(Cc2ccccc2)C(=O)c2ccccc2S3(=O)=O)CC1`, the “activation” value was inactive: -13.2%.
Still for that read-out and setting: with `Cc1cccc(NC(=O)Cn2nc(C)c3nn(-c4ccc(Cl)cc4)c(C)c3c2=O)c1C` the figure was inactive: -8.44%; with `COCCNC(=O)CSc1nc2cc3c(cc2c(=O)n1CCCCCC(=O)NCCc1ccc(OC)c(OC)c1)OCO3`, inactive: -10.8%; with `COc1ccc(-c2cc(C(F)(F)F)n3nc(-c4ccc(Cl)cc4)cc3n2)cc1OC`, inactive: -9.19%.
With `COc1c(C)c2c(c(O)c1C/C=C(\C)CCC(=O)OCCN1CCOCC1)C(=O)OC2`, the “activation” value is inactive: -0.0188%.
As to `CN1C(C(=O)Nc2ccccn2)=C(O)c2ccccc2S1(=O)=O`, the “activation” value was inactive: -10.7%.
Same read-out and setting: for `O=C1c2ccccc2-c2onc3c(Br)cc(NC4CCCCC4)c1c23` the value was inactive: -16.6%.
As to `O=C(CSc1nnc(-c2cccs2)o1)Nc1cccc(C(F)(F)F)c1`, the “activation” value is inactive: 16.7%.
Consider `Cc1cccc(N2C(=O)CSC23C(=O)N(CC(=O)NCCc2ccccc2)c2ccccc23)c1` (configuration not stated), for which the “activation” value was inactive: -26.9%.
Consider `O=C(OCc1ccccc1F)c1ccc(-c2nnn(Cc3ccccc3)n2)cc1`, for which the “activation” value was inactive: -3.48%.
`CCN(CC)c1ccc(NC(=O)C(NS(=O)(=O)c2cccs2)C(C)C)c(C)c1` (configuration not stated): the “activation” value is inactive: -8.93%.
For the compound `O=C(Cc1ccccc1)NC1CC(=O)N(c2ccc3c(c2)OCCO3)C1` (configuration not stated), the “activation” value is inactive: 5.72%.
On the same count and under the same terms, for `NCCS` the value was inactive: -15.9%; for `Cc1cc2c(cc1S(=O)(=O)CCC(=O)NCc1ccccc1)OCC(=O)N2`, inactive: -20%.
On the same count and under the same terms, with `COCCOC(=O)C1=C(C)NC(C)=C(C(=O)OC(C)C)C1c1cccc([N+](=O)[O-])c1` (configuration not stated) the figure was inactive: 17%.
The same measure, in the same setting: with `COc1ccc(-n2nnnc2C2CCN(S(=O)(=O)c3cccc(Cl)c3C)CC2)cc1` the figure was inactive: -12.8%; with `CCCOc1ccc2c(c1)CC[C@@H]1[C@@H]2CC[C@]2(C)C(OC)CC[C@@H]12` (some centres not stated), inactive: -14%; with `CCn1nc(-c2ccccc2)c(-c2ccccc2)c(C(=O)Nc2ccccc2C(N)=O)c1=O`, inactive: -7.02%.
Consider `CN(C(=O)c1cnc(N2CCOCC2)c2ccccc12)c1ccccc1F`, for which the “activation” value was inactive: -0.296%.
For `CCc1ccc(S(=O)(=O)Nc2cc(-c3cn4ccccc4n3)ccc2C)cc1`, the “activation” value was inactive: 1.8%.
Still for that read-out and setting: with `COc1ccc(NC(=O)c2c(NCc3cccc(OC)c3)sc3c2CCC3)cc1` the figure was inactive: -10.9%; with `COc1ccc(C)c2sc(N(Cc3cccnc3)C(=O)COc3ccccc3)nc12`, inactive: -19.5%.
Take `Cc1cccc(Nc2ncnc3c2cnn3C)c1C`: the “activation” value is inactive: -0.657%.
Consider `CCCOc1ccc(C(=O)Nc2ccc(NC(=O)c3cccc(Cl)c3)cc2)cc1`, for which the “activation” value was inactive: -21.5%.
As to `Cc1ccc(C)c(N2CCN(C(=O)c3cc(S(=O)(=O)N4CCCC4)c[nH]3)CC2)c1`, the “activation” value is inactive: 11.4%.
On the same count and under the same terms, for `COc1cccc(Nc2cc(-c3ccccc3)nc(C)n2)c1` the value was inactive: -9.76%; for `CN(C)c1ccc(-c2nc(-c3ccncc3)no2)cc1[N+](=O)[O-]`, inactive: -12.8%.
With `COc1cc(OC)cc(C(=O)NCc2ccc3c(c2)CCN3C(=O)c2ccccc2)c1`, the “activation” value was inactive: -21.7%.
Still for that read-out and setting: for `Cc1ccc(-n2ncc3c(N4CCN(C)CC4)ncnc32)cc1` the value was inactive: -5.38%; for `Cc1ccc2c(c1)N(C(=O)N1CCC(C(=O)NC3CCCCCC3)CC1)CCO2`, inactive: -15.6%; for `COCCCNC(=O)CSc1nc2nc(C)c(Cc3ccccc3Cl)c(C)n2n1`, inactive: 0.141%.
Same read-out and setting: with `COc1cccc(CNC(=O)c2cc(-c3cccs3)nc3ccccc23)c1` the figure was inactive: -9%; with `CC(=O)N1CCCc2cc(S(=O)(=O)NCc3ccc(N(C)C)cc3)ccc21`, inactive: -12.1%.
In the case of `COc1cc2nc(NCc3ccccc3Cl)n3nc(-c4cccnc4)nc3c2cc1OC`, the “activation” value is inactive: 5.49%.
Consider `COc1ccc(CC(=O)N2CC(=O)Nc3ccc(Br)cc3C2c2ccc(F)cc2)cc1OC` (configuration not stated), for which the “activation” value is inactive: -8.36%.
On the same count and under the same terms, with `COC(=O)c1ccc(NC(=O)CC2C(=O)N(c3ccccc3)C(=O)N2C2CCCC2)cc1` (configuration not stated) the figure was inactive: 3.43%; with `CCOc1ccc(Nc2c(S(=O)(=O)c3ccc(C)cc3)cnc3ccc(OC)cc23)cc1`, inactive: -26.1%; with `COc1cc(C(=O)N2CCC(c3ccncc3)CC2)cc(OC)c1OC`, inactive: -13.7%.
On the same count and under the same terms, for `COc1ccc(Cn2c(C(=O)O)c(CNC3CCC(C)CC3)c3ccc(C)cc32)cc1` (configuration not stated) the value was inactive: 2.63%; for `Cc1cccc(-n2c(SCC(=O)Nc3ccccc3Cl)nc3n[nH]c(C)c3c2=N)c1`, inactive: -10.5%.
For the compound `COc1cccc(C(=O)Nc2ccc3nc(SCc4ccc(C)cc4)sc3c2)c1`, the “activation” value is inactive: -1.55%.
The same measure, in the same setting: with `Cn1nc(-c2ccccc2)c(-c2ccccc2)c(C(=O)Nc2ccc(S(N)(=O)=O)cc2)c1=O` the figure was inactive: 3.11%.
For `CCOc1ccc(NC(=O)CN2C(=O)CCSc3ccc(S(=O)(=O)N4CCCC4)cc32)cc1`, the “activation” value was inactive: -13.8%.
Turning to `O=C(NCC(c1cccnc1)N1CCOCC1)C(=O)Nc1cccc(Cl)c1` (configuration not stated), the “activation” value is inactive: -15.3%.
For the compound `CSc1ccc(CCNC(=O)c2sc3ncccc3c2-n2cccc2)cc1`, the “activation” value is inactive: -12%.
Regarding `COC(=O)c1ccc(NC(=O)N2CCc3c([nH]c4ccccc34)C2c2ccc(C)cc2)cc1` (configuration not stated), the “activation” value was inactive: -34.9%.
As for `Cc1ccc(C)c(N2CCN(C(=O)C(C)n3nc(C)c4sc5ccccc5c4c3=O)CC2)c1` (configuration not stated), the “activation” value was inactive: 4.33%.
For the compound `COc1cccc(-n2cc(C(=O)NCCc3cccc(C)c3)c3ccccc3c2=O)c1`, the “activation” value was inactive: -32.2%.
As for `CCC1CCCCN1CCCNC(=O)c1cc2c(Cl)nc3ccc(C)cc3c2s1` (configuration not stated), the “activation” value was inactive: -14.3%.
On to `Cc1c2cnn(CC(=O)NCCc3ccccc3)c(=O)c2c(C)n1Cc1ccccc1Cl`, for which the “activation” value is inactive: -5.07%.
With `CCC1CCCCN1CCCNC(=O)c1ccc2c(c1)N(Cc1cccc(C)c1)C(=O)c1ccccc1S2(=O)=O` (configuration not stated), the “activation” value is inactive: -5.55%.
On to `COc1ccc(Cn2c(=O)c3oc4ccccc4c3n(CC(=O)Nc3cc(C)cc(C)c3)c2=O)cc1`, for which the “activation” value was inactive: 5.7%.
Regarding `O=C(NCc1ccccc1Cl)C(=O)NCC(c1ccco1)S(=O)(=O)c1cccs1` (configuration not stated), the “activation” value is inactive: -14%.
On the same count and under the same terms, with `COc1ccccc1CNC(=O)C1CCN(c2nn3c(=O)cc(C)nc3s2)CC1` the figure was inactive: 6.31%.
Regarding `O=C(O)c1ccc(-n2nc(-c3ccccc3O)nc2-c2ccccc2O)cc1`, the “activation” value is inactive: -7.48%.
As for `Cc1ccc(-c2nc3ccc(Br)cn3c2Nc2ccc3c(c2)OCO3)o1`, the “activation” value is inactive: -19.6%.
As to `O=C(COc1ccccc1F)NC1CC(=O)N(c2ccc3c(c2)OCCO3)C1` (configuration not stated), the “activation” value was inactive: -16.1%.
The same measure, in the same setting: with `CCc1ccccc1NC(=O)CSc1nc2c(oc3ccccc32)c(=O)n1-c1ccccc1` the figure was inactive: -1.06%; with `CCOc1ccc(NC(=O)CSc2nc3nc(C)c(Cc4ccccc4)c(C)n3n2)cc1`, inactive: -12.7%; with `COc1cc(C(=O)NCC(c2ccc(N(C)C)cc2)N2CCCC2)cc(OC)c1OC` (configuration not stated), inactive: -12%.
For `COc1ccc(/C=C(\C#N)c2nc(-c3ccc(Cl)c(Cl)c3)cs2)cc1OC`, the “activation” value was inactive: 15.9%.
Same read-out and setting: for `CCc1ccc(NC(=O)CSc2nc(=O)n(Cc3cccnc3)c3c2CCC3)cc1` the value was inactive: -8.64%; for `CC(=O)c1ccc(NC(=O)CN2C(=O)c3cccnc3Sc3ccccc32)cc1`, inactive: -9.73%.
For `COc1ccccc1N1CCN(C(=O)c2cnn(-c3ccc(C)c(C)c3)c2C2CCN(C(=O)OC(C)(C)C)CC2)CC1`, the “activation” value was inactive: -6.86%.
On to `Cc1cccc(C(=O)Nc2ccc(-c3nc4cc(C(C)C)ccc4o3)cc2)c1`, for which the “activation” value was inactive: -12.1%.
On to `Cc1ccc(N2CCN(C(=O)NCc3noc4ccccc34)CC2C)cc1` (configuration not stated), for which the “activation” value is inactive: -11.4%.
On the same count and under the same terms, for `COc1cc(Cl)c(C)cc1Nc1nc2ccccc2nc1NS(=O)(=O)c1ccccc1` the value was inactive: -13.3%; for `COc1ccc(-c2c3c(nc4sc(C(=O)Nc5ccc(F)cc5)c(N)c24)CC(C)(C)CC3=O)cc1`, inactive: -9.69%.
In the case of `CCOC(=O)c1c(C)oc2ncnc(NCCCN3CCN(c4cc(C)ccc4C)CC3)c12`, the “activation” value was inactive: -6.15%.
In the case of `COc1ccc(Cl)cc1S(=O)(=O)N1CCN(Cc2cccc(F)c2)CC1`, the “activation” value was inactive: -7.71%.
The same measure, in the same setting: with `CCCOc1ccc(C(=O)N(Cc2cccs2)c2ccc(C)cc2)cc1` the figure was inactive: -7.27%; with `CCOC(=O)c1ccc(NC(=O)C2CCN(C(=O)N3CC(C)Oc4ccc(C)cc43)CC2)cc1` (configuration not stated), inactive: -18.7%; with `COc1ccc(S(=O)(=O)n2nc(C)c(S(=O)(=O)N3CCCCCC3)c2C)cc1OC`, inactive: 9.55%.
In the case of `O=C(NCc1ccco1)C1CCN(C(=O)N2CCOc3ccc(Cl)cc32)CC1`, the “activation” value was inactive: -10.9%.
Consider `CN(C)S(=O)(=O)c1ccc2c(c1)N(CC(=O)NCc1cccc(Br)c1)C(=O)CS2`, for which the “activation” value was inactive: -15.9%.
Take `Cc1cc2nc(-c3ccc(Cl)cc3)cc(C(F)(F)F)n2n1`: the “activation” value was inactive: 16.5%.
Take `O=S(=O)(NCCc1csc2nc(-c3ccc(Cl)cc3)nn12)c1ccc(Oc2ccccc2)cc1`: the “activation” value was inactive: -12.1%.
With `CC(=O)c1cccc(NC(=O)CSc2nnc3ccc(-c4ccc(C)cc4)nn23)c1`, the “activation” value was inactive: -16.5%.
On to `Cc1ccccc1-c1nc(C(N)=O)c2c(n1)n(-c1ccc3c(c1)OCO3)c(=O)n2C`, for which the “activation” value was inactive: -14.1%.
Regarding `Nc1ccncc1N`, the “activation” value is inactive: -10.6%.
For `Cc1ccc(C)c(Cn2c(=O)n(Cc3ccc(C(=O)NC4CCN(Cc5ccccc5)CC4)cc3)c(=O)c3ccccc32)c1`, the “activation” value was inactive: -7.25%.
The same measure, in the same setting: with `Cc1ccc(-c2nnc(NC(=O)c3ccc4c(c3)OCCO4)o2)c(C)c1` the figure was inactive: -9.76%.
Take `Cc1cc2c(cc1S(=O)(=O)CCC(=O)NC1CCC(C)CC1)OCC(=O)N2` (configuration not stated): the “activation” value is inactive: 0.832%.
On the same count and under the same terms, for `COc1ccccc1-c1nnc2n(CCc3ccccc3)c(=O)c3ccccc3n12` the value was inactive: -11.9%.
For the compound `O=c1cc2nc(-c3cccs3)nc(SCCOc3ccc(Cl)cc3)n2[nH]1`, the “activation” value is inactive: -22.3%.
Turning to `CCn1c(=N)c(C(=O)NC2CCCCC2)cc2c(=O)n3cccc(C)c3nc21`, the Potency is active: 28.2 µM.
With `O=C1CC(c2nnc(Cc3ccc(Cl)cc3)o2)CN1c1ccccc1` (configuration not stated), the “activation” value is inactive: -12.9%.
As for `O=C(CC1C(=O)N(c2ccc(F)cc2)C(=O)N1Cc1ccc2c(c1)OCO2)Nc1ccc(F)cc1` (configuration not stated), the “activation” value is inactive: -12.9%.
As to `CC(=O)N1c2ccccc2CC1C(=O)N1CCN(c2cccc(Cl)c2)CC1` (configuration not stated), the “activation” value is inactive: -11.3%.
`Cc1ccc(O)c(NC(=O)c2noc3c2CCCCC3)c1`: the “activation” value is inactive: -18.7%.
On the same count and under the same terms, for `COc1cccc(-n2cc(C(=O)Oc3cccc(C(F)(F)F)c3)c3ccccc3c2=O)c1` the value was inactive: -13.8%; for `Cc1ccc(C)c(CN2C(=O)c3ccccc3S(=O)(=O)c3ccc(C(=O)N4CCCC4)cc32)c1`, inactive: -1.81%; for `Nc1c(-c2nc(-c3cccs3)no2)nnn1-c1cccc(F)c1`, inactive: -9.85%.
With `CCc1ccc(NC(=O)c2ccc3oc(=O)n(Cc4ccccc4)c3c2)cc1`, the “activation” value is inactive: -2.67%.
As for `CCN(c1ncnc2c1cnn2-c1cc(Cl)ccc1C)C1CCCCC1`, the “activation” value was inactive: -12.8%.
Turning to `COc1cccc(CNC(=O)CN2C(=O)CCCc3ccccc32)c1OC`, the “activation” value is inactive: -2.88%.
For `CCOc1ccc(OCC)c(NC(=O)C(NS(=O)(=O)c2ccc(Br)s2)c2ccccc2)c1` (configuration not stated), the “activation” value was inactive: -1.04%.
